Measurements reported in PMC7722926.
No constants are given. Whether binding was seen depends on the method and setting. In cells and extracts the contact can be indirect. Some entries that bind do so weakly or less than the wild type. For part of these data: Tags and fused reporters may be left off the sequences shown. One block for each substance: values may come before it.

Chains of the proteins cited; added tags and fusions are not shown. Lines headed by an entry give the natural chain unless they say otherwise; changes in a name come on top.
UniProt Q92993: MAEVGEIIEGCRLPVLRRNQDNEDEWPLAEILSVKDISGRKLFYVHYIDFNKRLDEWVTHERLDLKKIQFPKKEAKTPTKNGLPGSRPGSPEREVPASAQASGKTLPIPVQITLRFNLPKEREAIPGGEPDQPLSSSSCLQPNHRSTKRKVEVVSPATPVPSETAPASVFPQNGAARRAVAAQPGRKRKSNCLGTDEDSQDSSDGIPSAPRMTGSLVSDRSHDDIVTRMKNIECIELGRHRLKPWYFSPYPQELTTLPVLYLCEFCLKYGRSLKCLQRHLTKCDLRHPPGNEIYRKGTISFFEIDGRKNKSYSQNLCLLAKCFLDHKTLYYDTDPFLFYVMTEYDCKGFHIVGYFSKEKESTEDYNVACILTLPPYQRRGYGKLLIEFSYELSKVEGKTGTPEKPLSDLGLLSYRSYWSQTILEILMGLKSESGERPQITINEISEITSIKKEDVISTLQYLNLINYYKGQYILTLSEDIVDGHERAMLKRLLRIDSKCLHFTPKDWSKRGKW
UniProt P16220: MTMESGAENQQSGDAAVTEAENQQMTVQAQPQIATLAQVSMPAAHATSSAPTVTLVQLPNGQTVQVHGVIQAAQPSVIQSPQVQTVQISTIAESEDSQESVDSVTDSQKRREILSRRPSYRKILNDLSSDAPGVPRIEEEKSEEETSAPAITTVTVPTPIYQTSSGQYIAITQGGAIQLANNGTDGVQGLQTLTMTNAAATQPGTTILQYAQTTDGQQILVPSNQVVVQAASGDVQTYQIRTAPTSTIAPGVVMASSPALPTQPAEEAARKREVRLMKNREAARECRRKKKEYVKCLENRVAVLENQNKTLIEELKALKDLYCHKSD
UniProt P19484: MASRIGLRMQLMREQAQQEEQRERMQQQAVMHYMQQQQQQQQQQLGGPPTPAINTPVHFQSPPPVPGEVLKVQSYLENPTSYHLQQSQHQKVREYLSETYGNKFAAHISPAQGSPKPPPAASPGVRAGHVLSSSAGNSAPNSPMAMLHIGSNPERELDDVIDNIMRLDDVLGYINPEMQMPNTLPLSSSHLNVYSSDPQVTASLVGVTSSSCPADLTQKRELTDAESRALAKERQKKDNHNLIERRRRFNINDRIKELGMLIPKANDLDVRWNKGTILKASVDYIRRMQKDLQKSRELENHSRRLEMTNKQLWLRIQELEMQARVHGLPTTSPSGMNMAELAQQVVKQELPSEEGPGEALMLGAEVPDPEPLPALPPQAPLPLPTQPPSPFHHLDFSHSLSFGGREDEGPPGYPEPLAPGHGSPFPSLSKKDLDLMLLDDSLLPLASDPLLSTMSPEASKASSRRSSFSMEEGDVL
UniProt Q9Y265: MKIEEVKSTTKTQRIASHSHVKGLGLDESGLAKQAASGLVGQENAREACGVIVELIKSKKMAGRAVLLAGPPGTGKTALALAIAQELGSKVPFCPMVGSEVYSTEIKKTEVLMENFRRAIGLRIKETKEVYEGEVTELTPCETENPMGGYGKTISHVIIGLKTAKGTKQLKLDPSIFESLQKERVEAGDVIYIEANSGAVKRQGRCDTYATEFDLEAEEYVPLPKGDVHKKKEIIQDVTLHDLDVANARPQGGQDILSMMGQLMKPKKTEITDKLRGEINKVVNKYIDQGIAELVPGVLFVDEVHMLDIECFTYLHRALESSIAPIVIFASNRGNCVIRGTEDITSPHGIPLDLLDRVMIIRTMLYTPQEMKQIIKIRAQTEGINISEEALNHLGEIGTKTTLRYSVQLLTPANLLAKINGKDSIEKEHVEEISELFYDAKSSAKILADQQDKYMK
UniProt P60122: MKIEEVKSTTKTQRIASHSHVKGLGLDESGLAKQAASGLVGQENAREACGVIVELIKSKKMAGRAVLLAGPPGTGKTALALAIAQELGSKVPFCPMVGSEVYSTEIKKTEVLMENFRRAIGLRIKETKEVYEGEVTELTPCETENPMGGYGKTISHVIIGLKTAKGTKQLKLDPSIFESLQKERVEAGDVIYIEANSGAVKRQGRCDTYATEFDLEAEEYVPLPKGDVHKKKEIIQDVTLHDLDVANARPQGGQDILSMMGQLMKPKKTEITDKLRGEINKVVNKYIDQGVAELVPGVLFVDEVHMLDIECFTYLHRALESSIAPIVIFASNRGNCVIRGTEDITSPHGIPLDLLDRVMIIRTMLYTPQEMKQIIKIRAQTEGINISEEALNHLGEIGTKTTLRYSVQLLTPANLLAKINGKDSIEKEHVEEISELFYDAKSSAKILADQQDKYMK

What was measured:
[1] = biological target: FOXO3a (in MEFs) (mouse (endogenous in MEFs)) (UniProt Q9WVH4); test: co-IP; MEFs (Pontin WT, RK or RA-expressing; WT or Carm1-/-), whole lysates or nuclear extracts, glucose starvation; also after CARM1 inhibitors EZM2302 (100 nM) and EPZ025654 (100 nM) for 96 h
[2] = biological target: Tip60 histone acetyltransferase (UniProt Q92993); test: co-IP; FOXO3a and Tip60 in the absence or presence of Pontin (Fig. 6f); cells not given
[3] = biological target: Tip60 histone acetyltransferase (UniProt Q92993); test: co-IP; Tip60 and Pontin WT or RK mutants in the absence or presence of glucose starvation (Fig. 6g); cells not given
FOXO3a F640L mutant = FOXO3a F640L mutant (UniProt O43524); test: co-IP; Pontin with FOXO3a WT, truncated proteins or mutants following glucose starvation (Fig. 5j, Supplementary Fig. 7a, 7b, 7e); cells not given
FOXO3a F642L mutant = FOXO3a F642L mutant (UniProt O43524); test: as above
[4] = biological target: T1, FOXO3a C terminus (418–673 a.a.), truncated protein in cells (UniProt O43524); test: as above
T1 sequence: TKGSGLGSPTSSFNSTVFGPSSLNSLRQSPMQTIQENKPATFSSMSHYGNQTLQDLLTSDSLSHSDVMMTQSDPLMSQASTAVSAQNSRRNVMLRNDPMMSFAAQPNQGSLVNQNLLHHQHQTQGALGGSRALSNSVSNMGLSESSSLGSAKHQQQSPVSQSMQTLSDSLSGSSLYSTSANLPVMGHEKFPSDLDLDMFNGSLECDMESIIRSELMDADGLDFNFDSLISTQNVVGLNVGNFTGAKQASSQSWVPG

[5] = biological target: T2, CR3 domain of FOXO3a (610–650 amino acids) (UniProt O43524); test: as above
T2 sequence: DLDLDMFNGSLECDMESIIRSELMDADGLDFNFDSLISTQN

[6] = biological target: FOXO3a 3A (M624A, I627A, and I628A) mutant (in cells) (UniProt O43524); test: as above
CREB = CREB (UniProt P16220); test: co-IP; Pontin and various autophagy-related transcription factors upon glucose starvation (Fig. 5c); cells not given
PPARα = biological target: T3, PPARα (UniProt Q07869); test: as above
T3 sequence: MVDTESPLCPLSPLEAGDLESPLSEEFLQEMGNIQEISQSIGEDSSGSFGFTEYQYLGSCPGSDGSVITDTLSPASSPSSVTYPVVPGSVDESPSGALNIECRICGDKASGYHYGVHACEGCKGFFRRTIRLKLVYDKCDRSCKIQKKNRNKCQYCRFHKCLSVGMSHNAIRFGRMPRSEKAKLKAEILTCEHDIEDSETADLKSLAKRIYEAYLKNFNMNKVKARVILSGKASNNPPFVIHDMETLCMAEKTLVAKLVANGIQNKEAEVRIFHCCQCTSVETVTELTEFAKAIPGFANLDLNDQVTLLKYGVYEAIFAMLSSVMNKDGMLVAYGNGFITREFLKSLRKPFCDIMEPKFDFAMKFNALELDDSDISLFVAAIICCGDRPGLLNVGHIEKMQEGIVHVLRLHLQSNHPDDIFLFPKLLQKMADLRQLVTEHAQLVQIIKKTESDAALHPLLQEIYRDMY

[7] = biological target: TFEB (transcription factor EB) (UniProt P19484); test: as above
[8] = biological target: T4, Flag-tagged CARM1 (coactivator-associated arginine methyltransferase 1) (UniProt Q86X55); test: co-IP; immunoblot of the eluate of the Flag-CARM1 affinity purification from HEK293T cells
T4 sequence: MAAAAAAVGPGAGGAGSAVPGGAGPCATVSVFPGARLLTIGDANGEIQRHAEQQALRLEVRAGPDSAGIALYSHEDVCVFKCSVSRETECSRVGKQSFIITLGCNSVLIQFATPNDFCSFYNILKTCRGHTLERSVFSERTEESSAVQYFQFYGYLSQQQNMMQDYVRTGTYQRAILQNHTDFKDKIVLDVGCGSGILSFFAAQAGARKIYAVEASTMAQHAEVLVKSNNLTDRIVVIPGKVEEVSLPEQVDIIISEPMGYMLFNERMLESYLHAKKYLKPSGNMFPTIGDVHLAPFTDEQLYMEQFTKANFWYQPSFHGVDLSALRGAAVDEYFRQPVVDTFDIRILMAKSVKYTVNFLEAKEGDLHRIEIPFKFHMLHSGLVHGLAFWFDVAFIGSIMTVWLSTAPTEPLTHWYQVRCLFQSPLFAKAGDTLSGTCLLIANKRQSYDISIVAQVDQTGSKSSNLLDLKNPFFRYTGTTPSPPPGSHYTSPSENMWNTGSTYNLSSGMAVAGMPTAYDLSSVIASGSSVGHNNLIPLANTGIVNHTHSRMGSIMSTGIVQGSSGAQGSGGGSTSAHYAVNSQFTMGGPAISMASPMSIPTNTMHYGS

[9] = biological target: T5, CARM1 (endogenous, HeLa) (human (endogenous in HeLa)) (UniProt Q86X55); test: co-IP; endogenous proteins in HeLa cells, glucose starvation for 18 h
T5 sequence: T4 sequence

[10] = biological target: T6, glutathione S-transferase (GST)-tagged CARM1 (UniProt Q86X55); test: pull-down; GST-CARM1 with in vitro translated Pontin or Reptin; 125 mM NaCl, 20 mM Tris pH 7.5, 10% glycerol, 0.1% NP-40, 0.5 mM DTT; only the target purified
T6 sequence: T4 sequence

Substance: 3× Flag-Pontin R333A/R339A (RA) mutant (stably expressed in Pontin^f/f MEFs) (from UniProt Q9Y265 1-456)
binding [1]: no binding

Substance: 3× Flag-Pontin WT (stably expressed in Pontin^f/f MEFs) (from UniProt Q9Y265 1-456)
binding [1]: binds

Substance: Pontin chromatin-remodeling factor (endogenous, HEK293T) (from UniProt Q9Y265 1-456)
binding [8]: binds

Substance: endogenous Pontin (HeLa) (from UniProt Q9Y265 1-456)
binding [9]: binds

Substance: in vitro translated Pontin (from UniProt Q9Y265 1-456)
binding [10]: binds

Other lines, results leading:

binding [1]: no binding
Substance: 3× Flag-Pontin R333K/R339K (RK) mutant (stably expressed in Pontin^f/f MEFs) (from UniProt Q9Y265 1-456)

binding [2]: binds
Substance: FOXO3a WT (Forkhead Box O 3a; in cells, construct not stated) (from UniProt O43524 1-673)

binding [1]: binds
Substance: Pontin (in WT MEFs) (from UniProt P60122 1-456)

binding [3]: binds
Substance: Pontin R333K/R339K (RK) mutant (construct and cells not stated) (from UniProt Q9Y265 1-456)

binding (FOXO3a F640L mutant): binds
binding (FOXO3a F642L mutant): binds
binding [4]: binds
binding [5]: binds
binding [6]: no binding
binding (CREB): no binding
binding (PPARα): no binding
binding [7]: no binding
binding [3]: binds
Substance: Pontin WT (construct and cells not stated) (from UniProt Q9Y265 1-456)
